# Screen size: about 140,000 compounds; about 240 (0.17%) were called active. Inconclusive results, whose numbers are uncertain, are shown with a selection of clear calls. Calls come from the whole dose curve; as a rule, active = well fitted inhibition curve with a large enough effect; inconclusive = small, poorly fitted or top-dose-only effect; inactive = no such curve, though single readings can be large or run the other way. Potencies of inconclusive entries are doubtful fits and often do not repeat.
# Test: Primary qHTS assay for inhibitors of alpha-synuclein gene (SNCA) expression; note: nearly all actives have a fitted effect of over 45% in size;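 for activity change, negative = inhibition: plate controls were DMSO cells for no effect and cell-free wells for full effect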
# Details: HEK-293 SNCA-luciferase knock-in, luminescence, 24 h; activity change, negative = inhibition: at 57.2 µM (top of the series) unless noted
# Potency is the fitted concentration of half-maximal effect; tags give direction and shape of the fitted curve.
Structure (SMILES),"activity change, negative = inhibition",Potency
O=C(CCc1ccccc1)N1CC(Oc2ccccc2-c2nc(-c3ccccc3)no2)C1,inactive: 3.52%,
O=C(Nc1cc(Cl)cc2c1[nH]c1cnccc12)c1cccnc1,,"inconclusive: 6.07 µM [inhibitor, partial curve]"
O=C(Cc1ccc(Cl)cc1)NC1CCN(c2cc(-c3ccc(F)cc3)[nH]n2)CC1,,"inconclusive: 5.01 µM [inhibitor, full curve, poor fit]"
CN(Cc1ccc(Cl)cc1)Cc1ccccc1C(F)(F)F,inactive: 7.86% [at 87.6 µM],
CCOc1ccc(NC(=O)N2CCc3cc(OC)c(OC)cc3C2CNC(=O)CC(C)C)cc1 (configuration not stated),,"inconclusive: 39.8 µM [inhibitor, single point]"
Cn1nccc1-c1cc2c(cn1)CN(Cc1ccncc1)CCN2,,"inconclusive: 31.6 µM [inhibitor, partial curve, poor fit]"
Cn1cc(CN2C[C@H](C(=O)NCc3cccc(F)c3)C[C@H]2c2cccc(C(F)(F)F)c2)cn1,,"inconclusive: 39.8 µM [inhibitor, single point]"
Cc1ccc(C)c(-c2cc3c(=O)n(CCNC(=O)c4ccccc4F)ccn3n2)c1,,"inconclusive: 39.8 µM [inhibitor, single point]"
CCc1ccc(NC(=O)CSc2nc(C)cc(COC)c2C#N)cc1,,"inconclusive: 14.1 µM [inhibitor, partial curve, poor fit]"
COc1ccc(-c2ccc3nnc(CNC(=O)COc4cccc(C)c4)n3n2)cc1,inactive: 13.8%,
COc1ccc(-c2cc3nc4c(c(=O)n3[nH]2)CN(C(=O)c2ccc(Cc3c(C)noc3C)o2)CC4)cc1,,"inconclusive: 8.91 µM [inhibitor, partial curve, poor fit]"
CC(C)C(=O)Nc1cccc(NC2=NS(=O)(=O)c3ccccc32)c1,inactive: 2.4%,
O=C(O)[C@@H]1CN(C(=O)Cc2ccc(O)cc2)C[C@H]1c1cccc(F)c1,,"inconclusive: 1.78 µM [inhibitor, partial curve, poor fit]"
COC(=O)c1cnc(N2CCN(c3ccccc3OC)CC2)c2ccccc12,,"inconclusive: 0.178 µM [inhibitor, partial curve, poor fit]"
CCCCNC(=O)CC(c1cccc(OC)c1OC)c1c[nH]c2ccccc12 (configuration not stated),,"inconclusive: 3.16 µM [inhibitor, full curve, poor fit]"
COCc1nnc(NC(=O)C2c3ccccc3C(=O)N(C3CCCC3)C23CCCC3)s1 (configuration not stated),inactive: -14.1%,
CCCS(=O)(=O)Nc1ccc(F)c(C(=O)c2c[nH]c3ncc(Cl)cc23)c1F,,active: 12.1 µM
O=C(NCCCc1ccccc1)C1CCc2nnc(-c3cccc(C(F)(F)F)c3)n21 (configuration not stated),,"inconclusive: 11.2 µM [inhibitor, partial curve, poor fit]"
O=C1CCc2cc(NC(=O)c3cccc(C(F)(F)F)c3)ccc2N1,,"inconclusive: 5.62 µM [inhibitor, single point]"
CCc1cccc(NC(=O)Cn2cc(C(=O)c3ccncc3)c(=O)c3cc(C)c(C)cc32)c1,,"inconclusive: 39.8 µM [inhibitor, single point]"
Cc1csc(NC(=O)[C@@H]2C[C@@H](c3ccc(F)cc3)N([S+](=O)([O-])c3cccnc3)C2)n1,,"inconclusive: 4.47 µM [inhibitor, single point]"

Structure (SMILES),"activity change, negative = inhibition",Potency
CNC(=O)c1cccc2c1CCN2C(=O)Nc1ccc(F)cc1,,"inconclusive: 15.8 µM [inhibitor, single point]"
CCOC(=O)N1CCN(S(=O)(=O)N2CCCC(C(=O)NCc3ccc(OC)cc3OC)C2)CC1 (configuration not stated),,"inconclusive: 0.158 µM [inhibitor, partial curve, poor fit]"
CC(NC(=O)COc1ccc(F)cc1)C(=O)N1CCN(c2ccccn2)CC1 (configuration not stated),,"inconclusive: 39.8 µM [inhibitor, single point]"
Clc1ccccc1-c1nnc(SCc2nc(-c3ccccc3)no2)n1-c1ccccc1,,"inconclusive: 35.5 µM [inhibitor, single point]"
Cc1ccc(OCC(=O)N2CCC(c3noc(-c4ccccn4)n3)C2)cc1 (configuration not stated),inactive: -0.195%,
COc1cc(N2CCC(N3CCN(C)CC3)CC2)ccc1Nc1ncc(Cl)c(Nc2ccccc2S(=O)(=O)C(C)C)n1,inactive: 9.92%,
Cc1cccc(N(CC(=O)N(C)Cc2ccccc2)S(=O)(=O)c2ccccc2)c1C,,"inconclusive: 39.8 µM [inhibitor, single point]"
COc1ccccc1CNC(=O)c1ccc(CS(=O)c2ccccc2Cl)o1 (configuration not stated),,"inconclusive: 0.178 µM [inhibitor, single point]"
CC12CN3CC(c4ccccc4)(CN(C1)C3c1ccc(Cl)cc1)C2=O (configuration not stated),,"inconclusive: 44.7 µM [inhibitor, single point]"
Cc1nc(CCNc2nc(-c3ccccn3)nc3c2c(C)nn3C)no1,inactive: -8.07%,
COC(=O)c1scc(-c2ccccc2)c1S(=O)(=O)Nc1ccc(C)c(Cl)c1,,"inconclusive: 39.8 µM [inhibitor, single point]"
CN(CCc1nc2ccccc2[nH]1)C(=O)C1COc2ccccc2C1 (configuration not stated),,"inconclusive: 3.55 µM [inhibitor, single point]"
CC1CCN(c2ccc(-c3cccc(NC(=O)NC(C)C)c3)nn2)CC1,,"inconclusive: 7.94 µM [inhibitor, partial curve, poor fit]"
COc1ccc(Nc2c3c(nc4ccc(NC(=O)c5cc(Cl)ccc5OC)cc24)CCCC3)cc1OC,,"inconclusive: 39.8 µM [inhibitor, partial curve, poor fit]"
CCc1cccc(OCC(=O)c2ccc3c(c2)N(CC(=O)NCCc2ccccc2)C(=O)CO3)c1,,"inconclusive: 3.16 µM [inhibitor, full curve, poor fit]"
CN(C)c1ccc(C(=O)Nc2ccc(-c3nc4ccccc4o3)cc2)cc1,inactive: 83.3%,
Cc1ccc(C(=O)Nc2cc(-c3cccnc3)nn2-c2ccccc2)cc1,inactive: 34.7%,
Cc1cc(C)c(CNC(=O)c2cc(Nc3ccccc3)cc3ncn(C)c23)c(=O)[nH]1,,"inconclusive: 25.1 µM [inhibitor, partial curve, poor fit]"
Cc1ccc(CNC(=O)c2c[nH]n3c(=O)c(Cc4ccc(F)cc4Cl)c(C)nc23)cc1,,"inconclusive: 10 µM [inhibitor, partial curve, poor fit]"
CC(=O)NC[C@H]1CCN(S(=O)(=O)c2cc(F)ccc2C)C[C@H]1N(C)C,,"inconclusive: 39.8 µM [inhibitor, partial curve, poor fit]"
CCN1C(=O)C2CC3(CCN(Cc4cn[nH]c4-c4cccs4)CC3)CN2C1=O (configuration not stated),inactive: -0.85%,

Structure (SMILES),"activity change, negative = inhibition",Potency
N#Cc1ccc(CN2CC(CNC(=O)Nc3ccccc3)C3(C2)CN(c2ccccc2)C3)cc1 (configuration not stated),,"inconclusive: 35.5 µM [inhibitor, single point]"
N#Cc1cccc(CN2CCC3(CC2)COCCN3C(=O)OCc2ccccc2)c1,,"inconclusive: 12.6 µM [inhibitor, full curve, poor fit]"
CCC1CCc2c(sc(NC(=O)C3c4ccccc4Oc4ccccc43)c2C(=O)OC)C1 (configuration not stated),,"inconclusive: 7.08 µM [inhibitor, single point]"
Cc1ccc(C(=O)NC(C(=O)N2CCCCC2)C2CCN(C(=O)C3CCCC3)CC2)cc1 (configuration not stated),,"inconclusive: 22.4 µM [inhibitor, partial curve, poor fit]"
COc1cc(OC)c(C=CS(=O)(=O)Cc2ccc(OC)c(NCC(=O)O)c2)c(OC)c1,inactive: -8.79%,
O=C(Nc1nc2c(s1)CCCC2)c1ccccc1F,,"inconclusive: 5.62 µM [inhibitor, full curve, poor fit]"
Cc1ccc(NC(=O)c2ccc(N(Cc3ccccc3)S(C)(=O)=O)cc2)cc1,inactive: 21.4%,
COCCN(C)C[C@H]1C[C@H](CO)CN(C(=O)c2[nH]nc(-c3ccccc3)c2C)C1,inactive: -3.17%,
CO[C@H]1[C@H](NC(=O)CCc2cccnc2)c2ccccc2C12CCNCC2,,"inconclusive: 1.41 µM [inhibitor, full curve, poor fit]"
CCOc1ccc(OCC)c(Nc2nc3ccc(C(=O)c4ccccc4)cc3n3cnnc23)c1,,"inconclusive: 2 µM [inhibitor, full curve]"
Cc1noc(C)c1-c1cc2c(cc(C)n2CCN(C)C)c(Nc2ccncn2)n1,inactive: -5.32% [at 87.6 µM],
O=C(NC1CCCC1)c1ccc2c(c1)N(S(=O)(=O)c1ccccc1)CC2,inactive: -7.83%,
COC(=O)c1ccc(NC(=O)NC(C)c2c(-n3cccc3)sc(C)c2C)cc1 (configuration not stated),,"inconclusive: 3.55 µM [inhibitor, partial curve, poor fit]"
COc1ccc(C(=O)N2CCC(N3C(=O)C4(CCCC4)C3c3ccccc3)CC2)cc1 (configuration not stated),,"inconclusive: 39.8 µM [inhibitor, single point]"
O=C(NCc1ccccc1)c1ccc2c(c1)N(Cc1ccc(F)cc1)CCS2,,"inconclusive: 17.8 µM [inhibitor, partial curve, poor fit]"
COc1ccc(C)cc1NC(=O)Cn1cccc1-c1nc(-c2ccc(F)cc2)no1,,"inconclusive: 39.8 µM [inhibitor, single point]"
COCCOc1ccc2c(n1)CCN(C(=O)c1cccc(OC)c1)C2,,"inconclusive: 2.82 µM [inhibitor, partial curve, poor fit]"
Cn1c(=O)c2cc(C(=O)Nc3cccc(C#N)c3)sc2c2ccccc21,,"inconclusive: 2.51 µM [inhibitor, full curve]"
O=C1CCN(C(=O)[C@@H]2CCCN2C(=O)C2CCCCC2)CCCCCCN1,inactive: 36.6%,
O=C(NC1CC1)[C@@H]1CN(Cc2ccc(Br)cc2)C[C@H]1CO,,"inconclusive: 0.631 µM [inhibitor, full curve, poor fit]"

# Reference: PubChem BioAssay AID1671194 (National Center for Advancing Translational Sciences (NCATS), 2021)
